# Reference: the supplement of paper PMC3334620
# In all, about 33,000 sequences were measured (“E-score (-0.5 to 0.5)”: median about -0.012, highest 2% from about 0.27 on). Some of the results follow.
# Target: T1, Vhr1 (UniProt P40522)
# T1 sequence: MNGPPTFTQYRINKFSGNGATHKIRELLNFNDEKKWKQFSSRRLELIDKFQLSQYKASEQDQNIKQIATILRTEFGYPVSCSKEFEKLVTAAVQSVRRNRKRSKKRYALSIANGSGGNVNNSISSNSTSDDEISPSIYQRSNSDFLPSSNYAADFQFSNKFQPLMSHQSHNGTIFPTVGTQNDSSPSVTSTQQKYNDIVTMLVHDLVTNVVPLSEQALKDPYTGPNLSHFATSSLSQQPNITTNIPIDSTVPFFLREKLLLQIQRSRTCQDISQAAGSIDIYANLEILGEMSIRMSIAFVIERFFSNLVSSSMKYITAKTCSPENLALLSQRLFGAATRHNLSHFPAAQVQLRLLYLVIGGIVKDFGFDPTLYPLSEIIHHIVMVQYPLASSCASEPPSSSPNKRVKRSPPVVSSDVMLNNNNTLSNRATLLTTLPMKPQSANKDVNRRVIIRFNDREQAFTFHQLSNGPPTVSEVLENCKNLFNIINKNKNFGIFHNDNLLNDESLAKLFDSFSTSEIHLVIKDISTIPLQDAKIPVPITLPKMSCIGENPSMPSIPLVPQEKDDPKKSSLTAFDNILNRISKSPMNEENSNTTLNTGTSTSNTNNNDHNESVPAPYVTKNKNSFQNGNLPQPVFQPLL
# Assay: PBM E-score (8-mer binding enrichment) (E-score (-0.5 to 0.5)); higher = stronger / more preferred TF binding; most listed sequences are background and not binding sites
# Conditions: protein concentration: 200 nM; construct: GST-full length
# Summary of the method: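 Detection of bound protein used fluorescent anti-GST, with scans normalised by masliner. The proteins were GST-tagged yeast transcription factors applied at about 100-200 nM to universal all-10-mer Agilent arrays made double-stranded by primer extension. Each ungapped eight-base word, pooled with its reverse complement, was scored with an E-score from the Universal PBM Analysis Suite.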
row,Sequence,PBM E-score
1,GGGTTCGA,0.0751
2,AGCCGCAC,0.00836
3,AACGTCAG,-0.184
4,CATCGTTC,-0.0439
5,AACGCTGT,-0.0743
6,AATATCCC,0.0723
7,ATTAGGGC,-0.153
8,CAAATGCG,0.203
9,ATTGAACC,0.133
10,CAGAGTTC,-0.0458
11,CCCGCTAG,-0.249
12,CGCCTCAC,-0.096
13,GCTAAAAC,-0.203
14,GAACTTCA,-0.297
15,GGTGTCAA,0.0319
16,AGTGCCGA,-0.0946
17,GAGATAGC,-0.186
18,GAATTTCA,-0.31
19,CTCATTGC,-0.0552
20,CCAGGCAC,0.0544
21,CCCTCTCG,-0.307
22,CAACCAAC,-0.0512

row,Sequence,PBM E-score
1,TTCGGAAA,-0.25
2,ATTAGATA,-0.0732
3,AGCCTCCA,-0.123
4,CTAGCCTA,-0.153
5,CCTGACGA,0.0859
6,CGCCCTTC,-0.179
7,AGGACGGG,-0.0357
8,TAGCGTAA,-0.0878
9,CTCTGCGC,0.0404
10,AGTATTGC,0.0488
11,GGTACAAC,0.161
12,TCCCACGA,0.187
13,CCGGACTA,0.108
14,GCTAGGTA,-0.148
15,AGGGTAAG,0.198
16,TAAACGCA,-0.125
17,AGATGAAT,0.06
18,CACACGAC,-0.014
19,AAGTTGTG,-0.00706
20,ATTACACG,0.0576
21,AACAAATA,0.116
22,AAAAACGT,-0.204

row,Sequence,PBM E-score
1,AGGCTTAC,-0.291
2,CGGCATAC,-0.00977
3,AGGCTGAT,0.0387
4,CCAAAAAA,-0.139
5,GCTCCCCC,-0.0539
6,GGAGCGAC,0.0968
7,CGTTGGGC,-0.0247
8,GAACTCTA,-0.0495
9,GAACGTAC,-0.0645
10,ATAACTCA,0.206
11,CTCTTTAA,-0.238
12,ACTCTTGA,-0.0294
13,GGGCATAA,-0.0397
14,TCAATTAA,-0.206
15,CATACGTA,0.128
16,GTGATCTA,-0.0494
17,ACCACATA,0.125
18,ACGCATCG,-0.162
19,GATAGATC,-0.0723
20,CCAGTTGA,-0.0854
21,GAGAAAGC,-0.189
22,ACTCCTGA,0.257

row,Sequence,PBM E-score
1,AACCACGT,0.00707
2,TACCTGCA,-0.0568
3,CACTCGGA,0.239
4,ACCCCGCT,0.0145
5,GGATGCTA,-0.109
6,ATGTCCCA,-0.215
7,ATTCCAAG,-0.00964
8,AATCATAA,0.131
9,TAAGTGCA,-0.0455
10,ATGTGGTC,0.167
11,CCGCTACC,0.0111
12,AGACACTA,0.0556
13,ACCCAAAT,0.013
14,GATAGGGA,-0.147
15,GAAATCAC,0.205
16,AAAATTCT,-0.252
17,CTGTTCCC,-0.103
18,CGGGGATC,-0.0678
19,AGTCGCCG,0.246
20,AAGTTGTC,0.0491
